PubChem BioAssay AID1963835 (Molecular Pharmacology Branch, DTP, NCI, 2024)
Certain results were filed several times, with different values. Only these are listed. There may be further records. Values given together repeat one measurement in other runs, samples, wells, individuals or studies. Brackets with × stand for listed records that agree. Dates in brackets are months of testing.

Tested on: 699152-130-R-J1-PDC complex spheroid viability
Test: Anticancer human tumor 699152-130-R-J1-PDC patient-derived pancreatic carcinoma cell line growth inhibition [POLQ]
Conditions: for viability, T/C: stronger effect = lower value
Description: Multicellular complex tumor spheroid response to Polymerase (POL) inhibitors (novobiocin, ART-558, RP6685) in combination with a variety of drugs and investigational agents in selected tumor cell lines
The POL inhibitors (novobiocin, ART-558, and RP6685) were evaluated both individually and in combination with standard of care and investigational anticancer small molecules within a complex spheroid model of solid tumors. . Complex spheroids include a stromal component modeled by human endothelial cells (HUVEC) and fibroblasts modeled by human mesenchymal stem cells (MSCs). The concentration ranges selected for each drug and investigational agent were based upon clinically achievable concentrations if the clinical Cmax of the agent was known.
Compounds. The drugs and investigational agents: novobiocin (NSC847541), ART-558 (NSC835418), RP-6685 (NSC848927), peposertib (NSC802822), ceralasertib (NSC780249), elimusertib (NSC800525), camonsertib (NSC841442), AZD-1390 (NSC803789), olaparib (NSC753686), talazoparib (NSC767125), rucaparib (NSC756644), sotorasib (NSC818433), MRTX-1133 (NSC836407), SN-38 (NSC673596), topotecan (NSC609699), epotoside (NSC141540), doxorubicin (NSC123127), gemcitabine (NSC613327), 5-fluorouracil (NSC19893), paclitaxel (NSC125973), vemurafenib (NSC761431), MSA-2 (NSC828583), SN-011 (NSC837082), adavosertib (NSC754352), prexasertib (NSC758257), carboplatin (NSC241240) and oxaliplatin (NSC266046), were obtained from the National Cancer Institute (NCI) Developmental Therapeutics Program Chemical Repository (21). The FDA-approved anticancer drug set is available from the Developmental Therapeutics Program at https://dtp.cancer.gov/organization/dscb/obtaining/. […] The stock solutions were prepared in dimethyl sulfoxide (DMSO, Sigma-Aldrich, St. Louis, MO, cat. D2650), except for the platinum compounds which were prepared in saline (Quality Biological, Gaithersburg, MD, cat. 114-055-101), at 800-fold the tested concentration and stored at -70 degrees C prior to their use. All drugs and investigational agents were tested over a range starting from a high concentration at or near the clinical Cmax and decreasing in half-log increments. If the clinical Cmax for an agent had not been determined, the highest concentration tested was 10 microM, except for SN-38, which was tested at a high concentration of 1 microM.
Cell Culture. All cells were maintained in an incubator at 37 degrees C and 5% CO2 with 95% humidity. The PDC lines were cultured according to standard operating procedures established by the NCI PDMR (https://pdmr.cancer.gov). Table 3 of the manuscript, lists the cell lines along with the number of the three cell types plated to form the mct-spheroids and media for tumor cell growth. After thawing, all PDC lines, except 997537-175-T-J1-PDC and 415267-285-R-J2-PDC, were cultured in Matrigel-coated flasks prepared with a working solution of 1X Ham's F-12 nutrient mix, without supplementation (Thermo Fisher Scientific, cat. 11765054), 100 U/mL penicillin-streptomycin (Thermo Fisher Scientific, cat. 15140122), and 2.5% Matrigel (Corning Inc., Corning, NY, cat. 354248) for the first three passages. The two PDC lines 997537-175-T-J1-PDC and 415267-285-R-J2-PDC were cultured on uncoated flasks. The 857933-349-R-J2-PDC line was cultured in 6C/Colon 1B media containing advanced DMEM/F-12 (Thermo Fisher Scientific, cat. 12634028), 10 mM HEPES (Thermo Fisher Scientific, cat. 15630080), 1X GlutaMAX supplement (Thermo Fisher Scientific, cat. 35050061), 0.1 mg/mL primocin (InvivoGen, San Diego, CA, cat. ant-pm-2), 10% defined fetal bovine serum, heat inactivated (HyClone Laboratories Inc., Logan, UT, cat. SH30070.03HI), 50% L-WRN conditioned media (ATCC, cat. CRL-3276), 1.25 mM N-Acetyl-L-cysteine (Sigma-Aldrich, cat. A9165), 10 mM nicotinamide (Sigma-Aldrich, cat. N0636), 1X B-27 supplement (Thermo Fisher Scientific, cat. 17504044), 1X N-2 supplement (Thermo Fisher Scientific, cat. […]
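Further: spheroids exposed to agents for 7 days before viability reading.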
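Wherever viability, T/C is given: percent of DMSO vehicle control viability so 100% = vehicle and 0% = no viable signal.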

| Compound | viability, T/C (compound alone 0.0316 µM) | viability, T/C (compound alone 0.1 µM) | viability, T/C (compound alone 0.316 µM) | viability, T/C (compound alone 1 µM) | viability, T/C (compound alone 3.16 µM) | viability, T/C (compound alone 10 µM) | IC50 (compound alone, run of 11/27/2023) |
| --- | --- | --- | --- | --- | --- | --- | --- |
| COC1C(OC(N)=O)C(O)C(Oc2ccc3c(O)c(NC(=O)c4ccc(O)c(CC=C(C)C)c4)c(=O)oc3c2C)OC1(C)C (stereo not drawn) | 107, 106, 39.9, 95.9, 92.1, 109, 99, 105 (2×), 99.9, 111, 99.6, 94.9% | 94, 106, 39.1, 103 (2×), 101, 102, 113, 100, 95.8 (2×), 104% | 97.2, 102 (2×), 39.7, 92.9, 93.2, 104, 101, 98.5, 105, 97.3, 91.5, 99.2% | 122, 106, 42.6, 102, 92.5, 104 (2×), 98.8, 118, 96.7, 108, 95.1, 101% | 108, 100, 40.1, 93.4, 117, 96.3, 96, 91.8, 107, 97, 110, 112, 115% | 125, 116, 40.8, 102 (3×), 112, 103, 104, 119, 107, 98.3, 99.5% | < 31.6 nM and > 10 µM |
| Cc1cccc(N(C)C(=O)C2C(O)CCN2c2nc(C)cc(C(F)(F)F)c2C#N)c1 (stereo not drawn) | – | – | – | – | 110, 107, 99.6, 93.3, 106, 88.9, 109, 113% [2023-11] and 98.7, 100, 115, 97.6, 104% [2023-12] | – | – |
